Reference: a collection of fitness landscapes (doi:10.1016/j.celrep.2020.107928)
The full ranking holds about 81,000 sequences; the median of “one-hybrid fitness for binding parS DNA” is about -0.17, and the highest 2% start at about 0.51. The list shows a part of the results.

B1: Caulobacter ParB omega fusion; a variant is named by its letters at X, in order, B8GW30 (parent)
chain: MESVVVGEPGMSEGRRGLGRGLSALLGEVDAAPAQAPGEQLGGSREAPIEILQRNPDQPRRTFREEDLEDLSNSIREKGVLQPILVRPSPDTAGEYQIVAGERAWRAAQRAGLKTVPIMVRELDDLAVLEIGIIENVQRADLNVLEEALSYKVLMEKFERTQENIAQTIGKSXSHVANXMRLLXLPDEVQSYLVSGELTAXHARAIAAAADPVALAKQIIEGGLSVRETEALARKAPNLSAGKSKGGRPPRVKDTDTQALESDLSSVLGLDVSIDHRGSTGTLTITYATLEQLDDLCNRLTRGI

Variants of: B1
Test: one-hybrid fitness for binding parS DNA (scaled: cognate 1, non-cognate 0); higher = stronger binding
Details: with parS DNA site
Outline: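 On M9-minus-histidine containing 0.1 mM IPTG and 5 mM 3-AT, E. coli USO cells with a HIS3 reporter, site 19 bp from the promoter, grew 48 hours at 37°C to select Caulobacter ParB libraries randomised at four specificity codons. Plasmids from before and after were Illumina-sequenced, with three replicate libraries pooled and variants under 10 reads left out. Fitness is the log change in variant-to-wild-type read ratio, rescaled against cognate and non-cognate.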

Variant	one-hybrid fitness for binding parS DNA
AHMD	≤ 0.2
IDSS	≤ 0.2
TGNY	≤ 0.2
NSVY	≤ 0.2
WIIF	≤ 0.2
LTTS	≤ 0.2
RFPF	≤ 0.2
KSWS	≤ 0.2
RNKK	≤ 0.2
DMVV	≤ 0.2
YPLG	≤ 0.2
PHNS	≤ 0.2
WYNS	≤ 0.2
DGSR	≤ 0.2
VDPG	≤ 0.2
PKYT	≤ 0.2
VSQS	≤ 0.2
HFEY	≤ 0.2
HVFR	≤ 0.2
HCQG	≤ 0.2
IPGV	≤ 0.2
ARVQ	≤ 0.2
RLFK	≤ 0.2
QLES	≤ 0.2

Variant	one-hybrid fitness for binding parS DNA
DHCR	≤ 0.2
QLQV	≤ 0.2
FLNT	≤ 0.2
MPEL	≤ 0.2
ASRL	≤ 0.2
GQNV	≤ 0.2
KQQS	≤ 0.2
CSRR	≤ 0.2
QICT	≤ 0.2
QDEP	≤ 0.2
NQYC	≤ 0.2
TPNF	≤ 0.2
PQRC	≤ 0.2
RTAI	≤ 0.2
QRRE	≤ 0.2
FPPA	≤ 0.2
QFKY	≤ 0.2
PWWF	≤ 0.2
HPQL	≤ 0.2
CYWT	≤ 0.2
KTAN	≤ 0.2
RKIT	0.675
CRTW	≤ 0.2
YFCR	≤ 0.2

Variant	one-hybrid fitness for binding parS DNA
VGDT	≤ 0.2
RQHT	0.892
LRWS	≤ 0.2
ELGD	≤ 0.2
QCKI	≤ 0.2
CKCF	≤ 0.2
QDFV	≤ 0.2
TFPW	≤ 0.2
CNNS	≤ 0.2
QHRV	≤ 0.2
VLTT	≤ 0.2
HHLA	≤ 0.2
NDIG	≤ 0.2
QHWS	≤ 0.2
SSPY	≤ 0.2
PWLM	≤ 0.2
FFRG	≤ 0.2
ARNQ	≤ 0.2
QVSM	≤ 0.2
KRPM	≤ 0.2
ARGR	≤ 0.2
SIQC	≤ 0.2
TGWT	≤ 0.2
CMKV	≤ 0.2

Variant	one-hybrid fitness for binding parS DNA
RTEH	0.208
SSCE	≤ 0.2
LRPP	≤ 0.2
LPKY	≤ 0.2
QQGK	≤ 0.2
PSKI	≤ 0.2
QFHD	≤ 0.2
DGSQ	≤ 0.2
DFHT	≤ 0.2
GCEA	≤ 0.2
QTKE	≤ 0.2
GRPL	≤ 0.2
RQPF	≤ 0.2
AAHR	≤ 0.2
WTYL	≤ 0.2
GNKV	≤ 0.2
GMRY	≤ 0.2
RQQL	≤ 0.2
CNIY	≤ 0.2
LRRI	≤ 0.2
VGAT	≤ 0.2
QQPE	≤ 0.2
LVAE	≤ 0.2
DVGP	≤ 0.2

Variant	one-hybrid fitness for binding parS DNA
PAKS	≤ 0.2
HIFL	≤ 0.2
TMAW	≤ 0.2
DFDR	≤ 0.2
VSTW	≤ 0.2
TDNV	≤ 0.2
DWSM	≤ 0.2
TRYP	≤ 0.2
QPVS	≤ 0.2
NPQM	≤ 0.2
MGNT	≤ 0.2
KATT	≤ 0.2
TAIE	≤ 0.2
ECHG	≤ 0.2
AFES	≤ 0.2
YTQP	≤ 0.2
GISV	≤ 0.2
RTTL	≤ 0.2
PWGN	≤ 0.2
TLSS	≤ 0.2
TVLN	≤ 0.2
ATYY	≤ 0.2
PPES	≤ 0.2
QPHL	≤ 0.2

Variant	one-hybrid fitness for binding parS DNA
NTDS	≤ 0.2
SIVS	≤ 0.2
AALT	≤ 0.2
CDAT	≤ 0.2
EHNR	≤ 0.2
DIHC	≤ 0.2
QNHV	≤ 0.2
RVYN	0.46
KSKT	≤ 0.2
HDER	≤ 0.2
AKML	≤ 0.2
IHYG	≤ 0.2
LIYS	≤ 0.2
RYIW	≤ 0.2
QIRM	≤ 0.2
AVPH	≤ 0.2
FTHE	≤ 0.2
NDLS	≤ 0.2
WIYG	≤ 0.2
RLLS	1.05
YKVG	≤ 0.2
HQKR	≤ 0.2
NYAL	≤ 0.2
CQKS	≤ 0.2

Variant	one-hybrid fitness for binding parS DNA
FRMA	≤ 0.2
TVKL	≤ 0.2
DRLS	≤ 0.2
HAST	≤ 0.2
LQFE	≤ 0.2
IRGT	≤ 0.2
IMSE	≤ 0.2
RYDR	≤ 0.2
QTHG	≤ 0.2
CFTP	≤ 0.2
WSQC	≤ 0.2
LCGG	≤ 0.2
TPPD	≤ 0.2
KTVQ	≤ 0.2
DIFL	≤ 0.2
HYIG	≤ 0.2
QYGG	≤ 0.2
NNYR	≤ 0.2
PFNP	≤ 0.2
RMSA	0.59
QVHP	≤ 0.2
HLRP	≤ 0.2
RTMM	0.346
RYFW	≤ 0.2

Variant	one-hybrid fitness for binding parS DNA
NSSF	≤ 0.2
QHNW	≤ 0.2
MVYS	≤ 0.2
QAPR	≤ 0.2
YSTW	≤ 0.2
IFLF	≤ 0.2
AQFG	≤ 0.2
RYGC	0.914
TFRS	≤ 0.2
STKL	≤ 0.2
PSTQ	≤ 0.2
HPPN	≤ 0.2
SLKV	≤ 0.2
SPTP	≤ 0.2
LSRE	≤ 0.2
GHSS	≤ 0.2
NHRT	≤ 0.2
MPYL	≤ 0.2
ERHM	≤ 0.2
YRMN	≤ 0.2
WSCE	≤ 0.2
NEAC	≤ 0.2
THPD	≤ 0.2
RHLC	0.928

Variant	one-hybrid fitness for binding parS DNA
MSVF	≤ 0.2
ATSI	≤ 0.2
CACS	≤ 0.2
QAVL	≤ 0.2
SNPE	≤ 0.2
WQSY	≤ 0.2
MAQT	≤ 0.2
LKVT	≤ 0.2
KREI	≤ 0.2
DRGN	≤ 0.2
NLSD	≤ 0.2
CTYL	≤ 0.2
MNYG	≤ 0.2
CPSW	≤ 0.2
QWVC	≤ 0.2
EERG	≤ 0.2
IMIV	≤ 0.2
YKDD	≤ 0.2
VEAS	≤ 0.2
MHQR	≤ 0.2
TTNL	≤ 0.2
DSLD	≤ 0.2
TLHP	≤ 0.2
LNIG	≤ 0.2

Variant	one-hybrid fitness for binding parS DNA
LAES	≤ 0.2
VPVQ	≤ 0.2
GYQN	≤ 0.2
TLGL	≤ 0.2
TGGK	≤ 0.2
PTIG	≤ 0.2
VHAN	≤ 0.2
PKEV	≤ 0.2
RDTT	≤ 0.2
RPDK	≤ 0.2
QYHM	≤ 0.2
QYLP	≤ 0.2
HPSR	≤ 0.2
DPMR	≤ 0.2
AGNP	≤ 0.2
PYHT	≤ 0.2
ITPA	≤ 0.2
AGSI	≤ 0.2
MFLS	≤ 0.2
FVNW	≤ 0.2
SRNI	≤ 0.2
AITI	≤ 0.2
RRDH	≤ 0.2
SHIS	≤ 0.2

Variant	one-hybrid fitness for binding parS DNA
KRII	≤ 0.2
TFFR	≤ 0.2
VLIY	≤ 0.2
DCLS	≤ 0.2
YDKR	≤ 0.2
QRNG	≤ 0.2
RHKH	0.248
RYNR	≤ 0.2
ALGN	≤ 0.2
QALC	≤ 0.2
TDSE	≤ 0.2
CAHY	≤ 0.2
NRCK	≤ 0.2
YASF	≤ 0.2
HRCN	≤ 0.2
NSQI	≤ 0.2
LVCS	≤ 0.2
CPTI	≤ 0.2
GNHE	≤ 0.2
PWYP	≤ 0.2
LVHV	≤ 0.2
CRYT	≤ 0.2
MQES	≤ 0.2
SQDF	≤ 0.2

Variant	one-hybrid fitness for binding parS DNA
SPVV	≤ 0.2
RRTY	0.398
RYHA	0.545
HMVC	≤ 0.2
HVNG	≤ 0.2
MNQR	≤ 0.2
TLGT	≤ 0.2
KFPG	≤ 0.2
QWHV	≤ 0.2
GLLH	≤ 0.2
CRLL	≤ 0.2
MYTR	≤ 0.2
FWRW	≤ 0.2
AISE	≤ 0.2
DLKL	≤ 0.2
IGDN	≤ 0.2
ARWW	0.23
RHYC	0.92
PLWV	≤ 0.2
HKLT	≤ 0.2
MNHS	≤ 0.2
SGKC	≤ 0.2
NYAR	≤ 0.2
MSHI	≤ 0.2

Variant	one-hybrid fitness for binding parS DNA
WCDT	≤ 0.2
VNGN	≤ 0.2
AKHR	≤ 0.2
ILPG	≤ 0.2
QCQH	≤ 0.2
NDTS	≤ 0.2
KCAG	≤ 0.2
NYIR	≤ 0.2
DELR	≤ 0.2
AAIV	≤ 0.2
YTSW	≤ 0.2
GHRV	≤ 0.2
QVQG	≤ 0.2
QRSC	≤ 0.2
IDTL	≤ 0.2
ILVR	≤ 0.2
SVMC	≤ 0.2
SRNG	≤ 0.2
